Test results reported in the RNAGym collection of RNA variant scans (doi:10.1073/pnas.2313332121).
This sample is rich in variants without activity.

B1: TPR 5TU (parent)
chain: GGAUCUUCUCGAUCUAACAAAAAAGACAAAUCUGCCACAAAGCUUGAGAGCAUCUUCGGAUGCAGAGGCGGCAGCCUUCGGUGGCGCGAUAGCGCCAACGUUCUCAACUAUGACACGCAAAACGCGUGCUCCGUUGAAUGGAGUUUAUCAUG

Variants of: B1
Test: polymerase ribozyme fitness, log enrichment relative to wild type (log ratio); higher = more active; in vitro selection for triplet polymerase activity
Procedure, shortened: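 Fitness is a logarithmic measure of how a genotype enriched relative to the wild type, with replicate averages weighted by inverse variance. The logarithm uses base 2, and enrichment came from Illumina sequencing of input and output libraries. Those libraries were PCR-built, transcribed mutants of each subunit of a heterodimeric triplet polymerase ribozyme, passed through one triplicate in vitro selection round that included frozen incubation at −7 °C, gel excision of extended constructs and streptavidin-bead capture. Genotypes were kept only if they had ≥10 input reads and ≥1 read per output.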

Polymerase ribozyme fitness (log ratio), ≤ -4.2:
A24U A39C U55C C75G G88A C95U A97C G117A U145G
A24U A40U C51U A66C G84A G141C
A24U A41G U44A C54A U61G U77G G140C
A24U A41U G59C G74C G84U G92C
A24U A49U C87A A91C U139A G143U
A24U A52C C54U G67C C87A C103U
A24U A52C G70U U101G
A24U A60U U77G G84U C85A C87G U127A G128C A138C
A24U A66G U104G C105U C118A C149A
A24U A91U C95G C131G
A24U A107G C123U G140U U145G A150G
A24U A137U
A24U C27A G46C C75G C79U C87G G141C
A24U C32G U56A G92U U139A
A24U C32U C54G A91G A107U A120G A142C
A24U C35U G48U C85G A137C
A24U C36U G59C U77A C87U
A24U C38G U45A G74A C93A G100C G126A U145A
A24U C54A A89U A91U C95G C132U U146G
A24U C75G G84C C95U
A24U C75U C76U A91U U135G U146A
A24U C76G G84C C131A C132A G141C
A24U C85U C108A
A24U C125A C131A A147C
A24U G25A C69U C95G C103G
A24U G34A A52C C76A A121U
A24U G42C C87G C99A
A24U G42U C54A C108U U139C
A24U G50A C95U C99A
A24U G59A U61G G86U
A24U G65C C93U U134C
A24U G65U A91U C116A G141C
A24U G67C C93A A107G
A24U G68A C76G C93U A138C G152C
A24U G74U C99U
A24U G84A C93G C103G C105G U135G C149G
A24U U31G G59C C87U C99G U102G
A24U U33G A60G C75G G81A
A24U U33G C57A C114U A119C U127A
A24U U45A G50A C116U A150G
A24U U77A A106G A122C G124U
A24U U78C A89G C96U G100A A150G
A24U U90G G143C G152A
G25A A26C A30U G59U A91C
G25A A26C C85A G133C
G25A A28G G59U C72U C85A C93U C96U A110C C116A U148A C149U
G25A A28U G48U C51A U56C A64G G84U C116U
G25A A30G G92A C103A
G25A C32U C85U U104G G136U
G25A C35G A37U U55A A91U A142C U145A
G25A C51G C95U U104A G124U C129U
G25A C93G
G25A C131G U146C
G25C A28U G80C C87U A89G
G25C A30G A52C U53A U77A G84U G86U C87A A121U G133U
G25C A49C A60C C96U
G25C A49C G50C A91G C96U
G25C A49G G50U G67C U102G U104G
G25C A60G G68C C96A
G25C A64C G83A U109G C114A G140A
G25C C27U U56G C63A A66C C95G A107C U127C
G25C C43G C95U
G25C G48C G86U G143A
G25C G59C G84A C87G A142U
G25C G80A G88C G94U G143U
G25C U53A A89U A97U U146G
G25C U55C G86C A89G G126A A142U
G25U A29C G50C C51A A52U U55A U78A C85U
G25U A29G U61G G92C
G25U A30G A91U U109A A115G G124A
G25U A39U G68C C69A C116G
G25U A39U U44C C79U C87G
G25U A40C C76G G86A C95A U144C
G25U A41U A49C G68U A150G
G25U A49G A52G C87A G94A U104A A107G G126U
G25U A52G C69U C96U C108G
G25U A89G C93A C99G C123A G133C
G25U C43U A47C U55A U101C A120G
G25U C57U G67A C93G G124A G136A
G25U C85A C103G U104G U134A A147U
G25U C96A A106U A122G C129G
G25U C99U C105A G128A A150G
G25U G68U C103G C108G
G25U G70C C123A
G25U G71A G80U C93U
G25U G92A G124U U135G A142G
G25U G100C
G25U U31C C43A G46A C96G
G25U U77C C79A U146C
A26C A28U C75U A91U C108G G133A G141C
A26C A29G A91U G94A C105G G117U
A26C A29U C95U G140C
A26C A30G A52U U53A C93U A97G
A26C A39C A89C G94A G143U
A26C A39G C93A U102G C118G U127A A137C G143C
A26C A39G G59C G92A U145C U148A
A26C A40G G74U U109C
A26C A40U G68A C87G C99U
A26C A41G U61A G70U G88C
A26C A47C G62A C93U G141A
A26C A47G G50U G58A G59U C85A C132G
A26C A49U C108A A121U G124U A137C U146G U148A
A26C A91C A110G
A26C C27U C85U G88U U139C A142G
A26C C32G A39U U78C G140U
A26C C32U U53A U55C G84U A91U U104C
A26C C35G G50C C96G G143U
A26C C36U C105U A137U
A26C C38A A49C C79U C93U
A26C C38U A39C A49C C108U U134G
A26C C43U G48U C108U C116G A120U U134C
A26C C57G A89C C149U
A26C C76U G84U U111G A147U
A26C C79G
A26C C85G A89G
A26C C85U U102G C114A
A26C C108U A120G G124U G136U U148A
A26C G34C A98G C123G C125G A137G
A26C G34U A60G C93U C118A U130G A147U
A26C G42A U53A C72A G80U G84C A98C U101A C103A U109G
A26C G42U G80U G83U G100C C149U
A26C G59A C87G G124U
A26C G59C C99U U102G C116U U135C
A26C G62A G68U G80U U82A
A26C G83C A98G A138U
A26C G86C C118U C125U U139C G141U U144A
A26C U31A G42C G46C G94A
A26C U31G G42A U61G G71A G84A A97U G100A C118A U148A
A26C U44A A47C C54U A110C A147C
A26C U44A G70U C85G
A26C U55G G88A C93A A98U C118U U151A
A26C U55G G88U U109G G112C A150G
A26C U77A C105A U144G
A26G A28C C36G C63U A91C C93A C118A
A26G A28C G59C A64C G136U G143U
A26G A30G G42C C51G U56A G68A G88A A91G C99G
A26G A39U C96G C105U A120U G152U
A26G A40C G46U C72U G86U U101G
A26G A40U G48U C87A U139A
A26G A41C U56A G65A A73G
A26G A49U U55A U61A C75U
A26G A64U C85G C95G A120U
A26G A66G A122C G136A G141U
A26G A66G G67A C75U A147C
A26G A137G G143C
A26G C32A C36G G68A
A26G C32U U78G C85U G133A
A26G C35A A64C U90A C95G
A26G C43G A52C C54A C93U U144C
A26G C51U G88A U127C A138U U148C
A26G C54G C57A A73U C85A C105A
A26G C54U C63A C95U A110U C114G C131A
A26G C85A G117A G143A U145C
A26G C95U C96A G117A
A26G C114U A142G A150G
A26G G50A C87U U101G A120U G141U
A26G G50A U53A C57G G80A C85G
A26G G50C C72A G84C A107U U111G G140A
A26G G70C C87G C103A
A26G G84A C85A C93A
A26G G86U C95U A115G A121C
A26G U44A U78C C99G G126A U134G
A26G U45G G50C G59C G68C C93G
A26G U53A C76G G81A
A26G U53C C87U
A26U A28U C36A U56A C85U
A26U A29C C96A C116U A122C
